For one assay, the system named is OVCAR4. As to the kind of experiment: log2 surviving fraction (library drug vs vehicle, or drug + carboplatin vs carboplatin alone; relative to plate median); ovarian cancer lines: OVCAR4 is platinum-sensitive and Ov4Carbo platinum-resistant; higher = more cell survival. The note with it: library drug concentration 10 µM, 7 days.
A further assay relates to Ov4Carbo. The assay is described as above. The note with it: library drug concentration 10 µM, 7 days.

Counter-ions that a name gives are not always drawn. This is one part of the list. Repeats are few or missing, and single values can be far off.

Turning to `COc1cc2nc(N3CCN(C(=O)C4CCCO4)CC3)nc(N)c2cc1OC` (stereo not given) [Terazosin HCl (Hytrin)], the log2 surviving fraction with OVCAR4 (carboplatin co-treatment 0 µM) was 0.567; with OVCAR4 (carboplatin co-treatment 5 µM) it was -0.701; in the assay with Ov4Carbo (carboplatin co-treatment 0 µM), 0.152; in the assay with Ov4Carbo (carboplatin co-treatment 5 µM), 0.313.

For the compound `Cc1cccc([C@H](C)c2c[nH]cn2)c1C` [Dexmedetomidine HCl (Precedex)], the log2 surviving fraction in the assay with OVCAR4 (carboplatin co-treatment 0 µM) is 0.0439; in the assay with OVCAR4 (carboplatin co-treatment 5 µM), -0.45; with Ov4Carbo (carboplatin co-treatment 0 µM), 0.746; in the assay on Ov4Carbo (carboplatin co-treatment 5 µM), -0.161.

In the case of `CCN1CCN(c2cc(-c3ccc(F)cc3)c3c(n2)CCCCCC3)CC1` [Blonanserin (Lonasen)], the log2 surviving fraction in the assay with OVCAR4 (carboplatin co-treatment 0 µM) is 0.417; in the assay on OVCAR4 (carboplatin co-treatment 5 µM), -0.195; in the assay on Ov4Carbo (carboplatin co-treatment 0 µM), -0.324; in the assay with Ov4Carbo (carboplatin co-treatment 5 µM), -1.

Turning to `CC(C)(C)CC(C)(C)c1ccc(OCCOCC[N+](C)(C)Cc2ccccc2)cc1` [Benzethonium chloride], the log2 surviving fraction in the assay with OVCAR4 (carboplatin co-treatment 0 µM) is -9.71; with OVCAR4 (carboplatin co-treatment 5 µM) it was -7.46; in the assay on Ov4Carbo (carboplatin co-treatment 0 µM) it was -8.52; in the assay with Ov4Carbo (carboplatin co-treatment 5 µM), -7.7.

Consider `CCOC(=O)C1=C[C@@H](OC(CC)CC)[C@H](NC(C)=O)[C@@H](N)C1` [Oseltamivir phosphate (Tamiflu)], for which the log2 surviving fraction in the assay with OVCAR4 (carboplatin co-treatment 0 µM) is 0.0102; in the assay with OVCAR4 (carboplatin co-treatment 5 µM), 0.368; in the assay with Ov4Carbo (carboplatin co-treatment 0 µM), 0.352; in the assay with Ov4Carbo (carboplatin co-treatment 5 µM), 0.121.

`CC1CCc2c(N3CCC(O)CC3)c(F)cc3c(=O)c(C(=O)O)cn1c23` (stereo not given) [Nadifloxacin]: the log2 surviving fraction was 1.31 in the assay with OVCAR4 (carboplatin co-treatment 0 µM), 1.21 in the assay on OVCAR4 (carboplatin co-treatment 5 µM), 0.586 with Ov4Carbo (carboplatin co-treatment 0 µM) and 0.462 in the assay on Ov4Carbo (carboplatin co-treatment 5 µM).

`O.O.O.O.O=C([O-])CC(O)(CC(=O)[O-])C(=O)[O-].[Li+].[Li+].[Li+]` [Lithium Citrate]: the log2 surviving fraction was -0.173 in the assay on OVCAR4 (carboplatin co-treatment 0 µM), 0.612 in the assay with OVCAR4 (carboplatin co-treatment 5 µM), -0.0522 with Ov4Carbo (carboplatin co-treatment 0 µM) and 1.2 with Ov4Carbo (carboplatin co-treatment 5 µM).

On to `NS(=O)(=O)c1cc(Cl)c(Cl)c(S(N)(=O)=O)c1` [Dichlorphenamide (Diclofenamide)], for which the log2 surviving fraction in the assay on OVCAR4 (carboplatin co-treatment 0 µM) was 1.8; with OVCAR4 (carboplatin co-treatment 5 µM), 1.55; in the assay on Ov4Carbo (carboplatin co-treatment 0 µM) it was 0.642; in the assay with Ov4Carbo (carboplatin co-treatment 5 µM), 1.07.

For the compound `COC(=O)Nc1nc2cc(Sc3ccccc3)ccc2[nH]1` [Fenbendazole (Panacur)], the log2 surviving fraction is -7.08 with OVCAR4 (carboplatin co-treatment 0 µM), -5.61 in the assay on OVCAR4 (carboplatin co-treatment 5 µM), -4.91 in the assay with Ov4Carbo (carboplatin co-treatment 0 µM) and -4.39 in the assay with Ov4Carbo (carboplatin co-treatment 5 µM).

As to `CO[C@H]1/C=C/O[C@@]2(C)Oc3c(C)c(O)c4c(O)c(c(/C=N/N5CCN(C)CC5)c(O)c4c3C2=O)NC(=O)/C(C)=C\C=C\[C@H](C)[C@H](O)[C@@H](C)[C@@H](O)[C@@H](C)[C@H](OC(C)=O)[C@@H]1C` [Rifampin (Rifadin, Rimactane)], the log2 surviving fraction was -0.0665 with OVCAR4 (carboplatin co-treatment 0 µM), 0.564 with OVCAR4 (carboplatin co-treatment 5 µM), 0.267 with Ov4Carbo (carboplatin co-treatment 0 µM) and 1.04 in the assay with Ov4Carbo (carboplatin co-treatment 5 µM).

Take `CC(C)(C)c1nc(-c2cccc(NS(=O)(=O)c3c(F)cccc3F)c2F)c(-c2ccnc(N)n2)s1`: the log2 surviving fraction is -1.62 in the assay on OVCAR4 (carboplatin co-treatment 0 µM), -0.72 with OVCAR4 (carboplatin co-treatment 5 µM), -2.51 in the assay on Ov4Carbo (carboplatin co-treatment 0 µM) and -2.19 in the assay with Ov4Carbo (carboplatin co-treatment 5 µM).

In the case of `CC(C)NCC(O)c1cc(O)cc(O)c1` (stereo not given) [Metaproterenol Sulfate], the log2 surviving fraction is 0.995 in the assay with OVCAR4 (carboplatin co-treatment 0 µM), -0.625 in the assay on OVCAR4 (carboplatin co-treatment 5 µM), 0.0638 in the assay with Ov4Carbo (carboplatin co-treatment 0 µM) and 0.222 in the assay with Ov4Carbo (carboplatin co-treatment 5 µM).

In the case of `OC[C@H]1O[C@H](O[C@]2(CCl)O[C@H](CCl)[C@@H](O)[C@@H]2O)[C@H](O)[C@@H](O)[C@H]1Cl` [Sucralose], the log2 surviving fraction with OVCAR4 (carboplatin co-treatment 0 µM) was -0.32; in the assay with OVCAR4 (carboplatin co-treatment 5 µM) it was 0.472; with Ov4Carbo (carboplatin co-treatment 0 µM) it was 0.0521; in the assay on Ov4Carbo (carboplatin co-treatment 5 µM), -0.671.

For `CN1C(=O)CCS(=O)(=O)C1c1ccc(Cl)cc1` (stereo not given) [Chlormezanone (Trancopal)], the log2 surviving fraction in the assay on OVCAR4 (carboplatin co-treatment 0 µM) came to 0.538; with OVCAR4 (carboplatin co-treatment 5 µM), 0.795; in the assay with Ov4Carbo (carboplatin co-treatment 0 µM) it was 0.809; in the assay on Ov4Carbo (carboplatin co-treatment 5 µM), 1.18.

On to `C[N+](C)(C)CCOC(N)=O` [Carbachol], for which the log2 surviving fraction in the assay on OVCAR4 (carboplatin co-treatment 0 µM) is -0.0717; in the assay on OVCAR4 (carboplatin co-treatment 5 µM), 0.674; in the assay with Ov4Carbo (carboplatin co-treatment 0 µM), 0.0379; with Ov4Carbo (carboplatin co-treatment 5 µM), 0.832.

For the compound `C[C@@H]1C[C@H]2[C@@H]3CCC4=CC(=O)C=C[C@]4(C)[C@@]3(F)[C@@H](O)C[C@]2(C)[C@@]1(O)C(=O)CO` [Dexamethasone], the log2 surviving fraction in the assay with OVCAR4 (carboplatin co-treatment 0 µM) was 1.01; with OVCAR4 (carboplatin co-treatment 5 µM), 0.382; with Ov4Carbo (carboplatin co-treatment 0 µM), -8.84; in the assay with Ov4Carbo (carboplatin co-treatment 5 µM) it was -1.09.

Take `NS(=O)(=O)c1cc2c(cc1Cl)NCNS2(=O)=O` [Hydrochlorothiazide]: the log2 surviving fraction with OVCAR4 (carboplatin co-treatment 0 µM) was 1.07; with OVCAR4 (carboplatin co-treatment 5 µM) it was 1.09; in the assay on Ov4Carbo (carboplatin co-treatment 0 µM), 1.58; with Ov4Carbo (carboplatin co-treatment 5 µM) it was 1.26.

For `O=C(O)c1nn(Cc2ccc(Cl)cc2Cl)c2ccccc12` [Lonidamine], the log2 surviving fraction in the assay with OVCAR4 (carboplatin co-treatment 0 µM) was 0.0717; with OVCAR4 (carboplatin co-treatment 5 µM), 0.176; in the assay with Ov4Carbo (carboplatin co-treatment 0 µM) it was -0.695; in the assay on Ov4Carbo (carboplatin co-treatment 5 µM), 0.0284.

On to `CCOC(=O)c1cncn1[C@H](C)c1ccccc1` [Etomidate], for which the log2 surviving fraction in the assay with OVCAR4 (carboplatin co-treatment 0 µM) was 0.48; in the assay on OVCAR4 (carboplatin co-treatment 5 µM), 0.899; in the assay on Ov4Carbo (carboplatin co-treatment 0 µM) it was 0.252; with Ov4Carbo (carboplatin co-treatment 5 µM) it was -0.55.

As for `CN1CC(=O)N2[C@H](c3ccc4c(c3)OCO4)c3[nH]c4ccccc4c3C[C@@H]2C1=O` [Tadalafil (Cialis)], the log2 surviving fraction in the assay with OVCAR4 (carboplatin co-treatment 0 µM) is 0.263; with OVCAR4 (carboplatin co-treatment 5 µM), 0.366; in the assay on Ov4Carbo (carboplatin co-treatment 0 µM), 0.506; in the assay with Ov4Carbo (carboplatin co-treatment 5 µM), -0.136.

Regarding `CN1[C@@H]2C[C@@H](OC(=O)[C@H](CO)c3ccccc3)C[C@H]1[C@@H]1O[C@@H]12` [Scopolamine hydrobromide], the log2 surviving fraction was -0.319 in the assay with OVCAR4 (carboplatin co-treatment 0 µM), 0.0417 with OVCAR4 (carboplatin co-treatment 5 µM), -0.397 in the assay on Ov4Carbo (carboplatin co-treatment 0 µM) and 0.62 in the assay with Ov4Carbo (carboplatin co-treatment 5 µM).

Consider `N=C(N)c1ccc(N=NNc2ccc(C(=N)N)cc2)cc1` [Diminazene Aceturate], for which the log2 surviving fraction in the assay with OVCAR4 (carboplatin co-treatment 0 µM) is -2.16; with OVCAR4 (carboplatin co-treatment 5 µM), -1.77; in the assay on Ov4Carbo (carboplatin co-treatment 0 µM) it was -1.5; with Ov4Carbo (carboplatin co-treatment 5 µM), -2.07.

Consider `Clc1ccc(COC(Cn2ccnc2)c2ccc(Cl)cc2Cl)c(Cl)c1` (stereo not given) [Miconazole (Monistat)], for which the log2 surviving fraction was -7.99 in the assay on OVCAR4 (carboplatin co-treatment 0 µM), -7.24 with OVCAR4 (carboplatin co-treatment 5 µM), -7.7 with Ov4Carbo (carboplatin co-treatment 0 µM) and -6.51 in the assay with Ov4Carbo (carboplatin co-treatment 5 µM).

On to `CN(C)CCCSC(=N)N` [Dimaprit 2HCl], for which the log2 surviving fraction in the assay on OVCAR4 (carboplatin co-treatment 0 µM) was -0.14; in the assay with OVCAR4 (carboplatin co-treatment 5 µM), -0.35; in the assay with Ov4Carbo (carboplatin co-treatment 0 µM) it was 0.0845; with Ov4Carbo (carboplatin co-treatment 5 µM) it was -0.00861.

For `Nc1ccc(O)c(C(=O)O)c1` [Mesalamine (Lialda)], the log2 surviving fraction was 0.000941 with OVCAR4 (carboplatin co-treatment 0 µM), -0.21 with OVCAR4 (carboplatin co-treatment 5 µM), -0.561 with Ov4Carbo (carboplatin co-treatment 0 µM) and -0.806 with Ov4Carbo (carboplatin co-treatment 5 µM).

For the origin of these results see the supplement of paper PMC8047034.
